Measurements: paper PMC4297356
No constants are given. Whether binding was seen depends on the method and setting. In cells and extracts the contact can be indirect. Some results given as binding are weak or reduced against the parent protein; the word gives no strength. For some assays here: Sequences can lack the tags named with a protein.

Protein sequences, listed by entry. Tags and fused reporters are not part of them.
UniProt P22358: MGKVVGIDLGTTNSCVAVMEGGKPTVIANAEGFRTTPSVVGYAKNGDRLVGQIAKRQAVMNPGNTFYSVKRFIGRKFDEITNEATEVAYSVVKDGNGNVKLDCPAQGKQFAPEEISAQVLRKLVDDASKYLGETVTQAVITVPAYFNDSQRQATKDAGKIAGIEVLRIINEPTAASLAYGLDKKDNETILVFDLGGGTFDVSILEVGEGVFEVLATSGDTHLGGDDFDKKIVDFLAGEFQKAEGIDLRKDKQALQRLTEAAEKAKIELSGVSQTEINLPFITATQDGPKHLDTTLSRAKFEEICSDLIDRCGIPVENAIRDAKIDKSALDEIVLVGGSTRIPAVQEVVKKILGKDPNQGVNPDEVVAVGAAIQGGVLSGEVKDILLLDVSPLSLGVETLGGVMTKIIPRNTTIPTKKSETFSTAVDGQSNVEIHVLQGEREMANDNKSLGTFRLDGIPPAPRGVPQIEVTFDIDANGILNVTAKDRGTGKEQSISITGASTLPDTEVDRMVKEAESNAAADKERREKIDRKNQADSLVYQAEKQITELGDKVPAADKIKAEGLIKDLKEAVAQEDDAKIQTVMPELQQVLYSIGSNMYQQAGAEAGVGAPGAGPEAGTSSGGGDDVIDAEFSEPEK

T1: Vipp1 (Synechocystis sp. PCC6803 (endogenous in Synechocystis)) (UniProt Q55707)
T1 sequence: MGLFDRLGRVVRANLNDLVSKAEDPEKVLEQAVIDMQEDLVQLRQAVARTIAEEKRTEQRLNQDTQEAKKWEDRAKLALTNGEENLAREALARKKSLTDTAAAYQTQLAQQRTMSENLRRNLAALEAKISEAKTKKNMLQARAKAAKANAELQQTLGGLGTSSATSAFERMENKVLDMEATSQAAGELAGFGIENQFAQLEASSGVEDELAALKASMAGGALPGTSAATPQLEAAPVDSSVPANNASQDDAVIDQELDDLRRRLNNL

T2: Vipp1 with an N-terminal His-tag (Synechocystis sp. PCC6803) (UniProt Q55707)
T2 sequence: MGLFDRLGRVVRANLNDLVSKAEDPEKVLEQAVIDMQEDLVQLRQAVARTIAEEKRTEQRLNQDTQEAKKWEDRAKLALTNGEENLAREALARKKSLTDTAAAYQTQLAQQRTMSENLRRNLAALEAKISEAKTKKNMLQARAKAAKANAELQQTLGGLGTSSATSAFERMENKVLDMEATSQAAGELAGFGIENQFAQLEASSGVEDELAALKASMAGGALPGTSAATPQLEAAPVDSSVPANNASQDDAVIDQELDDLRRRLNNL

T3: FutA1–GFP (GFP-tagged FutA1) (Synechocystis sp. PCC6803) (UniProt P72827)
T3 sequence: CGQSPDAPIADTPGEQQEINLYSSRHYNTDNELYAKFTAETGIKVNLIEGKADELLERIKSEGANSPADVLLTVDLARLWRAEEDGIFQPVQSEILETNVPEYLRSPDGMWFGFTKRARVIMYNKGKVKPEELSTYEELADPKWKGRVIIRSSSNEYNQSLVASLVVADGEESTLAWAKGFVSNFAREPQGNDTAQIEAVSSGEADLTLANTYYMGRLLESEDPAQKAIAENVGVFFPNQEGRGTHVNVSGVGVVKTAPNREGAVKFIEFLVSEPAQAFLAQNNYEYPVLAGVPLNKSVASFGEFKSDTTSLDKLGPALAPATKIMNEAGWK

T4: Vipp1–GFP (Synechocystis Vipp1 tagged with green fluorescent protein at the C-terminus) (Synechocystis sp. PCC6803) (UniProt Q55707)
T4 sequence: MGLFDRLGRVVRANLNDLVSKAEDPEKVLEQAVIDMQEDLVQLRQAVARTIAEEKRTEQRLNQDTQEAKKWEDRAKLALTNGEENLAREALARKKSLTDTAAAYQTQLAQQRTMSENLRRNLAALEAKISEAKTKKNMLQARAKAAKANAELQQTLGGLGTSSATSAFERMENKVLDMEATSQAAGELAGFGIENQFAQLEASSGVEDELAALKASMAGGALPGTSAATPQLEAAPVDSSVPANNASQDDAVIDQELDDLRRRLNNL


Experiments:
[1] = target: T1, Vipp1 (Synechocystis sp. PCC6803 (endogenous in Synechocystis)); assay: co-IP; antiserum (anti-DnaK2; also Vipp1 antibodies) coupled to protein A sepharose, incubated with Synechocystis cellular extracts (cells not exposed to HL); Western blot with antibodies against DnaK2 and Vipp1; pre-immune serum as control
[2] = target: T2, Vipp1 with an N-terminal His-tag (Synechocystis sp. PCC6803); assay: pull-down; His-tagged Vipp1 left on the Ni-NTA matrix, incubated with Synechocystis cellular extract (cells not exposed to HL) with 5 mM ATP or 10 U apyrase; Western blot with anti-DnaK2; only the target purified
[3] = target: T3, FutA1–GFP (GFP-tagged FutA1) (Synechocystis sp. PCC6803); assay: co-IP; anti-GFP microbeads (μMACS column) on lysates of HL-treated Synechocystis vipp1–gfp, futA1–gfp and wild-type cells; GFP affinity-bound fraction immunoblotted
[4] = target: T4, Vipp1–GFP (Synechocystis Vipp1 tagged with green fluorescent protein at the C-terminus) (Synechocystis sp. PCC6803); assay: as above
[5] = target: T4, Vipp1–GFP (Synechocystis Vipp1 tagged with green fluorescent protein at the C-terminus) (Synechocystis sp. PCC6803); assay: condition: only cells grown in low light (LL), not exposed to HL; co-IP; anti-GFP microbeads (μMACS column) on lysate of LL-grown (8 μE m^−2 s^−1) Synechocystis vipp1–gfp cells; GFP affinity-bound fraction immunoblotted
[6] = target: Chaperone protein DnaK2 (Synechocystis sp. PCC6803 (endogenous in Synechocystis)) (UniProt P22358); assay: co-IP; antiserum (anti-DnaK2; also Vipp1 antibodies) coupled to protein A sepharose, incubated with Synechocystis cellular extracts (cells not exposed to HL); Western blot with antibodies against DnaK2 and Vipp1; pre-immune serum as control

Row | binding [1] | binding [2] | binding [3] | binding [4] | binding [5] | binding [6] | Molecule
1 | binds | binds | no binding | binds | no binding |  | Chaperone protein DnaK2 (from UniProt P22358 1-636)
2 |  |  | no binding | binds | no binding |  | Chaperone protein DnaK3 (protein, UniProt P73098 1-771) MGKVVGIDLGTTNSVVAVMEGGKPIVIANAEGMRTTPSVVGFNKEGELVVGQMGRRQAVLNPQNTFYGVKRFMGRRYTDLTPESKRVAYTIRRDDRDNIKVRCPRLKKDFAPEEISAMILRKLAEEASRYLGEKVTGAVITVPAYFNDSQRQATRDAGKIAGLEVLRIINEPTAASLAYGLDQGRIQKILVFDLGGGTFDVSVLEVGDGIFEVKATSGDTQLGGNDFDRRIVDWLAEKFLEAEKVDLRQDRQALQRLTEAAEKAKIELSGVGTTEINLPFITATEDGPKHLETQLSRSEFEDLCGDLVTRLQRPVKRVLKDAGLSPVQIDEVVLVGGGTRMPMVKGLVRSFIDREPNENVNPDEVVAIGAAIQAGILDGEVKDILLLDVTPLSFGLETIGGVMKKLLPRNTTIPVRKSDIFSTGENNQTVVEVHVLQGEREMASDNISLGRFKLSGIPPAPRGVPQVQVSFDIDANGILQVTARDKTTGREQSITVQGASILSEGEVNRMIQEAETFAAQDRERRERIEKRNSAKALTDQAQRRLKEVTLDFGSAFTVSYRRQVDALCSEILDSLEKDDERRLDRAQADLQDVLYELNREVRLQYDDKEEGFFEAIKKTFTGDFDDDDDYYNRRPAPRDDYRGGNDYGRYDDYNYNAPSRREAPMPRAGAGRGPSLSKDYRSTAYADWDQSRVTRQRPYQGESLGGTYDDRRSSPQDDYSRGDRQKDYDYRENAPSRSGRGGNGRYGERPAQPGRNAPLQNGWDDDDDDWF
3 |  |  | no binding | binds |  |  | Elongation factor G1 (protein, UniProt P28371 1-695) MEKDLTRYRNIGIFAHVDAGKTTTTERILKLTGRIHKLGEVHEGESTMDFMEQEAERGITIQSAATSCFWKDHQLNVIDTPGHVDFTIEVYRSLKVLDGGIGVFCGSGGVEPQSETNWRYANDSKVARLIYINKLDRTGADFYRVVKQVETVLGAKPLVMTLPIGTENDFVGVVDILTEKAYIWDDSGDPEKYEITDIPADMVDDVATYREMLIETAVEQDDDLMEKYLEGEEISIDDIKRCIRTGTRKLDFFPTYGGSSFKNKGVQLVLDAVVDYLPNPKEVPPQPEVDLEGEETGNYAIVDPEAPLRALAFKIMDDRFGALTFTRIYSGTLSKGDTILNTATGKTERIGRLVEMHADSREEIESAQAGDIVAIVGMKNVQTGHTLCDPKNPATLEPMVFPDPVISIAIKPKKKGMDEKLGMALSKMVQEDPSFQVETDEESGETIIKGMGELHLDIKMDILKRTHGVEVEMGKPQVAYRESITQQVSDTYVHKKQSGGSGQYAKIDYIVEPGEPGSGFQFESKVTGGNVPREYWPAVQKGFDQSVVKGVLAGYPVVDLKVTLTDGGFHPVDSSAIAFEIAAKAGYRQSLPKAKPQILEPIMAVDVFTPEDHMGDVIGDLNRRRGMIKSQETGPMGVRVKADVPLSEMFGYIGDLRTMTSGRGQFSMVFDHYAPCPTNVAEEVIKEAKERQAAA
4 |  |  | no binding | binds | no binding |  | PSII assembly/repair factor Ycf48 (protein, UniProt P73069 29-342) CSHVPDLAFNPWQEIALETDSTFADIAFTEDPNHGWLVGTKETIFETTDGGDTWEQKLIDLGEEKASFSAVSFSGNEGWITGKPSILLHTTDGGQTWARIPLSEKLPGAPYSIIALGPQTAEMITDLGAIYKTTNGGKNWKALVEGAVGVARTIQRSTDGRYVAVSARGNFYSTWAPGQTEWTPHNRNSSRRLQTMGYGKDGQLWLLARGGQLQFSTDPDAEEWSDVIAPQDKGSWGLLDLSFRTPEEVWVAGASGNLLMSQDGGQTWAKDTGVEDIPANLYRVVFLSPEKGFVLGQDGILLKYNPSTEVAMVP
5 |  |  |  |  |  | binds | Vipp1 (protein, UniProt Q55707 1-267) MGLFDRLGRVVRANLNDLVSKAEDPEKVLEQAVIDMQEDLVQLRQAVARTIAEEKRTEQRLNQDTQEAKKWEDRAKLALTNGEENLAREALARKKSLTDTAAAYQTQLAQQRTMSENLRRNLAALEAKISEAKTKKNMLQARAKAAKANAELQQTLGGLGTSSATSAFERMENKVLDMEATSQAAGELAGFGIENQFAQLEASSGVEDELAALKASMAGGALPGTSAATPQLEAAPVDSSVPANNASQDDAVIDQELDDLRRRLNNL
